Measured values as given in PubChem BioAssay AID1346428 (National Center for Advancing Translational Sciences (NCATS), 2018).
“And” between values parts separate entries of the source, which are not always exact repeats. Identical values can stand only once. Out of some 48,000 compounds screened, about 1,200 (2.5%) were called active. About 2% were inconclusive and are not listed.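 Rule for the calls: active = activation of at least 60% and not above a set upper limit (about 1 call in 100 departs from these limits); inconclusive = activation of 40% to 60%, or above that upper limit; inactive = activation under 40%.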 Some of the results follow.

Biological target: Probable G-protein coupled receptor 32 (Homo sapiens) (UniProt O75388)
Test: qHTS for Agonists of Human Resolvin D1 Receptor DRV1; note: 0% is about no effect
Settings: CHO-K1 GPR32 beta-arrestin PathHunter luminescence, 90 min; at 76.9 µM; active compounds read high; zero percent set by DMSO-only wells
Outline: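 CHO-K1 cells stably expressing ProLink-tagged GPR32 and Enzyme Activator-tagged beta-arrestin were seeded at 2,500 cells/well overnight, exposed to compounds for 90 min at 37 °C, then read by beta-Gal complementation chemiluminescence after 1 h detection reagent.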

Sequence of UniProt O75388 (O75388 whole entry, looked up): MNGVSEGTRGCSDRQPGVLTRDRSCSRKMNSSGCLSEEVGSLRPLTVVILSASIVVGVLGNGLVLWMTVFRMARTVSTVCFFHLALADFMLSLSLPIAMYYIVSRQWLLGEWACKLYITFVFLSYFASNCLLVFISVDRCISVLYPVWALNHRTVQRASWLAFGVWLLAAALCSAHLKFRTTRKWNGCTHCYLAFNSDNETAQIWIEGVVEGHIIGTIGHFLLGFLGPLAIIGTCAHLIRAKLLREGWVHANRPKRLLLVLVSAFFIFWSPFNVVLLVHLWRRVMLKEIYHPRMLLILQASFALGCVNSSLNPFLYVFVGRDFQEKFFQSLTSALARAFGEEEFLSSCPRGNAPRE

SMILES	activation
O=C(COc1ccc(F)cc1)OCc1cc(=O)n2nc(-c3cccs3)sc2n1	inactive: 20.3%
CC(C)CN(CC(C)C)CC(O)Cn1cc(/C=C/C(=O)c2ccccc2)c2ccccc21 (stereo not given)	inactive: 8.61%
COc1cc(NS(=O)(=O)c2c(C)nc3sc(C)c(C)n3c2=O)cc(OC)c1	inactive: -2.6%
CCc1ccc(NC(=O)C2=CC(c3cccs3)=NS(=O)(=O)N2C)cc1	inactive: -9.83%
NC(N)=N/N=C/c1c(Cl)cccc1Cl	inactive: 19.2% and inactive: 8.27%
COc1ccc(C(=O)NCc2ccc3c(c2)CCN3C(=O)c2ccc(F)cc2)cc1	inactive: -13.4%
CCOc1ccccc1CNC(=O)Cn1nc(N2CCN(c3ccccc3)CC2)ccc1=O	active: 61.3%
COc1ccc(C)c2sc(NC(=O)c3ccc(S(=O)(=O)N4CCCC4)cc3)nc12	inactive: -7.6%
CC1CCN(S(=O)(=O)c2ccc3c(c2)N(CC(=O)NCC(C)c2ccccc2)C(=O)CO3)CC1 (stereo not given)	inactive: -21.6%
Cc1c(C(=O)OCc2ccccc2)[nH]c2c1C(=O)CC(c1ccc(Cl)cc1)C2 (stereo not given)	inactive: 24.1%
O=C(NCc1ccc(Cl)cc1)NC1COc2ccccc2C1 (stereo not given)	inactive: -12.4%
CCOc1ccc(S(=O)(=O)Nc2cccc(-c3ccc(N4CCC(C)CC4)nn3)c2)cc1	inactive: -8.14%
Cn1nnnc1SCCCNCc1cccc(OCc2ccccc2)c1	inactive: -2.85%
CN(C)c1ccc(CNC(=O)C2COc3ccccc3C2)cc1 (stereo not given)	inactive: -6.3%
O=C(CSc1ncccc1C(=O)Oc1ccccc1Cl)Nc1ccccc1Cl	inactive: -23.5%
O=C(NCc1ccco1)c1ccc(Cn2c(SCc3ccccc3F)nc3cccnc32)cc1	inactive: -17.3%
CN(C)CCC=C1c2ccccc2C=Cc2ccccc21	inactive: 19.1% and inactive: -3.6%
CCN1CCN(c2ncnc3c2cnn3-c2cccc(C)c2)CC1	inactive: -11.1%
COc1ccc(CCNC(=O)Cn2cc(S(=O)(=O)Cc3ccc(F)cc3)c3ccccc32)cc1OC	inactive: -10.8%
CCOc1ccccc1NC(=O)C1CCCN1S(=O)(=O)c1ccc2nc(-c3ccccc3)[nH]c2c1 (stereo not given)	inactive: -34.2%
CN(C)CCc1c[nH]c2ccc(C[C@H]3COC(=O)N3)cc12	inactive: -13.8%
O=C(NC1CCCCC1)c1ccc2c(c1)N(Cc1ccccc1Cl)C(=O)c1ccccc1S2	inactive: -10.4%

SMILES	activation
Cc1ccc(-c2cc(C(F)(F)F)n3ncc(-c4ccccc4)c3n2)cc1	inactive: 10.9%
CCOc1ccc(C(=O)c2oc3ccccc3c2NC(=O)c2cc(-c3ccc(C)cc3)on2)cc1	inactive: -10.6%
CCCCN(C)C(=O)CSc1nc2ccccc2nc1Cc1ccc(C)cc1	inactive: 10.1%
CCOc1ccc(NC(=O)c2cc(S(=O)(=O)N3CCN(c4ccccc4F)CC3)ccc2F)cc1	inactive: 1.41%
Cc1ccc2[nH]c(=O)c3cc(C(=O)NC4CCC(C)CC4)sc3c2c1 (stereo not given)	inactive: -2.1%
C[N+]1(C)CCC(=C(c2ccccc2)c2ccccc2)CC1	inactive: -14%
COc1ccccc1CNC(=O)C(=O)NCC(c1cccs1)S(=O)(=O)c1cccs1 (stereo not given)	inactive: 28.6%
CCOc1ccc(Nc2c(S(=O)(=O)c3ccc(C)cc3)cnc3ccc(F)cc23)cc1	inactive: -44%
Cc1ccc2oc(C(=O)N(Cc3sccc3C)C3CCS(=O)(=O)C3)c(C)c2c1 (stereo not given)	inactive: -32%
COc1ccc(-n2c(=O)c3c4c(sc3n(C)c2=O)CN(C(C)=O)CC4)cc1	inactive: -11.5%
O=c1cc(-c2ccccc2)n2c(SCc3ccccc3Cl)nnc2[nH]1	inactive: -2.6%
COc1cccc2c1cc1c(=O)n(CC(=O)NCc3ccco3)nc(C)n12	inactive: -1.78%
COc1ccccc1C(=O)Nc1nnc2n1CCS2	inactive: 6.74%
Cc1ccc(CCNC(=O)CN(c2ccc(C)cc2)S(=O)(=O)N(C)C)cc1	inactive: 25.7%
CC(C)OCc1cc(CN2CCN(c3cccc(C(F)(F)F)c3)CC2)c(O)c2ncccc12	inactive: -12.8%
Cc1c(Cl)cccc1NC(=O)CSc1nc(=O)n(Cc2ccco2)c2c1CCC2	inactive: -5.66%
CN(C)c1ccc(CNC(=O)C2CCN(Cc3cc4ccccc4n3Cc3ccccc3)CC2)cc1	inactive: -38.3%
CCSc1nnc2c(n1)OC(c1ccc(OC)c(OC)c1)N(C(C)=O)c1ccccc1-2 (stereo not given)	inactive: -18.6%
CCCCCNC(=O)C1CCC(Cn2c(=O)c3sccc3n(CC(=O)NCc3cccc(OC)c3OC)c2=O)CC1 (stereo not given)	inactive: -10.8%
CCCCC(=O)Nc1nnc(S(=O)(=O)N(C)Cc2ccccc2)s1	inactive: -3.95%
Cc1cccc(N(C)S(=O)(=O)c2cc3[nH]c(=O)c(=O)[nH]c3cc2C)c1	inactive: -2.83%
NS(=O)(=O)c1cc2c(cc1Cl)NCNS2(=O)=O	inactive: -0.915% and inactive: 14%

SMILES	activation
O=C1C(=O)N(C2CCN(C(=O)c3ccccc3F)CC2)CCN1Cc1ccc(F)cc1	inactive: 13.7%
COc1ccc(Cl)cc1NC(=O)CSc1ccc2nnc(CCNS(=O)(=O)c3ccccc3)n2n1	inactive: -10.5%
Cc1ccc(-c2noc(CSc3nnc(C)n3-c3ccc(C)c(C)c3)n2)cc1	inactive: -8.97%
CCCN(CCC)C(=O)Cn1c(=O)n(CCCCCC(=O)NCc2ccccc2Cl)c(=O)c2sccc21	inactive: -16%
CCCOc1ccc(-c2cc(C(F)(F)F)c(C#N)c(SCCC(=O)O)n2)cc1	inactive: 21.4%
Cc1ccc(S(=O)(=O)C(CNC(=O)COc2ccccc2)c2ccco2)cc1 (stereo not given)	inactive: -22.1%
CC(C)CCNC(=O)C(Cc1ccccc1)NS(=O)(=O)c1ccc2c(c1)c(=O)n(C)c(=O)n2C (stereo not given)	inactive: -8.67%
Cc1cc(C)n(-c2nc3cc(Cl)ccc3nc2N2CCN(c3ccccc3F)CC2)n1	inactive: -22.9%
CS(=O)(=O)N1CCc2cc(C(=O)Nc3ccc(C(F)(F)F)cc3)ccc21	inactive: -20.7%
O=C(Nc1ccccc1C(=O)OCc1cc(=O)n2nc(C3CC3)sc2n1)c1cccc(F)c1	inactive: 2.8%
Cc1ccc(CNC(=O)CSc2nc3n[nH]c(C)c3c(=N)n2-c2ccccc2Cl)cc1	inactive: -17.4%
O=C(Nc1ccc(F)c(Cl)c1)N1CCC(CN2CCOCC2)CC1	inactive: -1.73%
COc1ccccc1CNC(=O)CSc1nnc(C)c2c(C)n(-c3ccccc3)nc12	inactive: -5.06%
CN1C(=O)C2(SCC(=O)N2c2ccc(Cl)cc2)c2ccccc21 (stereo not given)	inactive: -25.8%
COCCNC(=O)c1ccc(-c2nc(CS(=O)(=O)c3ccccc3)c(C)o2)cc1	inactive: 5.35%
Cc1nc2sccn2c(=O)c1S(=O)(=O)Nc1cc(C(F)(F)F)ccc1Cl	inactive: -10.5%
Cc1ccccc1OCCCCn1nnc2sc3c(c2c1=O)CCC(C)C3 (stereo not given)	inactive: 17.2%
CCOCCCn1c(SCC(=O)Nc2ccccc2Cl)nc2c(oc3ccccc32)c1=O	inactive: -34.6%
Cc1ccc(CCNC(=O)c2ccc3c(c2)nc2n3CCOC2)cc1	inactive: -5.96%
CCOc1ccc(NCc2nc3ccccc3n2CCOc2ccc(C)cc2)cc1	inactive: -6.85%
CC(=O)N1CCCc2cc(S(=O)(=O)N3CCCC(C(=O)NCc4ccc(C)cc4)C3)ccc21 (stereo not given)	inactive: 11.5%
CCOc1ccc(NC(=O)CSc2nc3ccsc3c(=O)n2CCCCCC(=O)O)cc1	inactive: -18.8%

SMILES	activation
O=C(CSc1nc2c(c(=O)[nH]1)CN(Cc1ccc3c(c1)OCO3)CC2)Nc1ccccc1Cl	inactive: 36.8%
Nc1ccc(C(=O)Oc2ccccc2)c(O)c1	inactive: 4.38%
CCc1nn2c(=O)c(S(=O)(=O)Nc3ccc(C(C)C)cc3)c(C)nc2s1	inactive: 13%
CCc1ccc(-n2nc3ccc(NC(=O)COc4ccc(OC)cc4)cc3n2)cc1	inactive: -7.81%
CNNCc1ccc(C(=O)NC(C)C)cc1	inactive: -16.8%
COc1cccc(Cn2c(CNS(=O)(=O)c3ccc(Cl)s3)nc3cccnc32)c1	inactive: -18.3%
O=C(Nc1cccc(F)c1)c1oc2ccccc2c1NC(=O)C12CC3CC(CC(C3)C1)C2	inactive: 0.958%
CCCCCn1cc2c(c1-c1ccccc1Br)c(=O)n(C)c(=O)n2C	inactive: -26.4%
O=S(=O)(c1ccccc1)c1nnn2c1nc(NCc1ccccc1)c1cc(Cl)ccc12	inactive: -16.6%
CC(C)c1ccc(NC(=O)CCS(=O)(=O)c2ccc3c(c2)CC(=O)N3C)cc1	inactive: 27.2%
Cc1nc2nc(C)c(CCC(=O)NCc3ccccc3)c(C)n2n1	inactive: -3.07%
CCOc1ccc2ncc3c(-c4cccc(OC)c4)nn(-c4ccccc4)c3c2c1	inactive: 13.7%
Cc1ccc2occ(CC(=O)Nc3ccc(S(=O)(=O)N4CCC(C)CC4)cc3)c2c1	inactive: -4.11%
CCC(C)NC(=O)Cn1c(=O)n(Cc2ccc(C(=O)NCc3ccc(C)cc3)cc2)c(=O)c2ccccc21 (stereo not given)	inactive: -12.4%
COc1cccc(Cc2nc3ccccc3nc2SCC(=O)Nc2cc(OC)ccc2OC)c1	inactive: -6.36%
CCOc1cc(-c2ccc(OC(=O)c3ccccc3)c(OC)c2)cc(=O)c2c(C)oc(C)c12	inactive: -20.2%
CCOCCn1ccc2c(OCC(=O)Nc3cccc(F)c3)cccc2c1=O	active: 76.8%
CCOc1ccccc1CNCCSc1nnnn1C	inactive: 16.9%
O=c1c2sc3ccccc3c2n(Cc2ccccc2)c(=O)n1CCc1ccccc1	inactive: -16.9%
